{"source": "paper PMC4336329", "about": "(PLoS ONE, 2015)", "note": "Out of some 310,000 compounds screened, about 2,200 (0.71%) showed an effect of 50% or more. The effect is printed as a negative number. The list shows a part of the results."}
{"molecular_target": "human ether-à-go-go-related gene (hERG) potassium channel (human, UniProt Q12809)", "sequence (Q12809 whole entry, looked up)": "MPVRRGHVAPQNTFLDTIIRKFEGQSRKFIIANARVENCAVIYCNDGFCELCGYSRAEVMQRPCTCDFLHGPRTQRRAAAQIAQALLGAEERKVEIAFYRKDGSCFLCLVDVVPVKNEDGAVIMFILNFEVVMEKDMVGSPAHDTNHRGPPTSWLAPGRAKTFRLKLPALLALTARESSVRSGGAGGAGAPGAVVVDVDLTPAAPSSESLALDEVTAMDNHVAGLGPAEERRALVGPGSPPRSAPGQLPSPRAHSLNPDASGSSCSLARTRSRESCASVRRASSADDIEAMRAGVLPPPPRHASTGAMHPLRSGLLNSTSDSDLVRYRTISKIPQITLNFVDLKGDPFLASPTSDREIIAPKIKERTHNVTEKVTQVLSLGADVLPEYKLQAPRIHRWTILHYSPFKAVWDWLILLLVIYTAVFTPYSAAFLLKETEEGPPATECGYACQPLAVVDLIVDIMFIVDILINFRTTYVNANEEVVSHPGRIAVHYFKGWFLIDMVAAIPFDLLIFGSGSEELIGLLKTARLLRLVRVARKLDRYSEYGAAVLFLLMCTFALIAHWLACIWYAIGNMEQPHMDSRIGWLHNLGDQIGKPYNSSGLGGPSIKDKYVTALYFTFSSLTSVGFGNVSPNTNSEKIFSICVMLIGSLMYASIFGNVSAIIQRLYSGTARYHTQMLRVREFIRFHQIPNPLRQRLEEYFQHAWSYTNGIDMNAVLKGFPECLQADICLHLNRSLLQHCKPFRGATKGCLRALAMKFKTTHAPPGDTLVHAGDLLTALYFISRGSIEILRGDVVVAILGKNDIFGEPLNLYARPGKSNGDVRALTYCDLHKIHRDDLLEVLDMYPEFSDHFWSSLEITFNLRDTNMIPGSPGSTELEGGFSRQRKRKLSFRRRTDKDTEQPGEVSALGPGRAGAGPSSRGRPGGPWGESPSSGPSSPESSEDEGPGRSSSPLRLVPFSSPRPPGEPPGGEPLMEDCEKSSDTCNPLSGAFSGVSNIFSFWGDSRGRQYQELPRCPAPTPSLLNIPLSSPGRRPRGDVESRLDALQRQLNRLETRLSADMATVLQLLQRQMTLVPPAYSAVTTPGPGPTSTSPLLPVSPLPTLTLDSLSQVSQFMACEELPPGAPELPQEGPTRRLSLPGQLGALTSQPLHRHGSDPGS", "assay": "primary screen, population patch clamp on CHO cells stably expressing hERG", "units": {"hERG current change (%, negative = inhibition) at 1uM": "%"}}
{"smiles": "CCN(CC)C(=O)CN(c1cc(Cl)ccc1OC)S(C)(=O)=O", "hERG current change (%, negative = inhibition) at 1uM": 8.33}
{"smiles": "CCc1nnc(NC(=O)NC(C)(C)C)s1", "hERG current change (%, negative = inhibition) at 1uM": 11.4}
{"smiles": "COc1ccccc1-n1c(SCC(=O)Nc2cccc3ccccc23)nc(O)cc1=O", "hERG current change (%, negative = inhibition) at 1uM": 1.29}
{"smiles": "COc1ccc(C=O)cc1Cn1c(C)cc(C)c(C#N)c1=O", "hERG current change (%, negative = inhibition) at 1uM": 3.93}
{"smiles": "CC(c1ccccc1)N1C(=O)CC(Sc2ncccc2C(=O)O)C1=O", "note": "(stereo not drawn)", "hERG current change (%, negative = inhibition) at 1uM": 14.4}
{"smiles": "CN(CCOc1ccccc1)C(=O)c1cc([N+](=O)[O-])ccc1N1CCOCC1", "hERG current change (%, negative = inhibition) at 1uM": -14.1}
{"smiles": "CCOC(=O)c1c(NC(=O)c2nn(CC)cc2Br)c(C#N)cn1-c1ccccc1", "hERG current change (%, negative = inhibition) at 1uM": 8.35}
{"smiles": "CCCC(O)(c1ccc(OC)cc1)C(CN1CCOCC1)c1ccccc1", "note": "(stereo not drawn)", "hERG current change (%, negative = inhibition) at 1uM": 10.9}
{"smiles": "CNC(=O)CN1C(=O)CSc2nc(C)cc(C)c21", "hERG current change (%, negative = inhibition) at 1uM": 2.95}
{"smiles": "C=CCn1c(-c2ccc(S(=O)(=O)N3CCOCC3)cc2)csc1=Nc1ccccc1", "hERG current change (%, negative = inhibition) at 1uM": 6.04}
{"smiles": "O=C(CSc1n[nH]c(-c2ccccc2)n1)NC(=O)NCc1ccco1", "hERG current change (%, negative = inhibition) at 1uM": -4.3}
{"smiles": "CNC(=S)N(CCc1c(C)[nH]c2ccc(OC)cc12)Cc1ccco1", "hERG current change (%, negative = inhibition) at 1uM": 9.8}
{"smiles": "N#Cc1c(-c2ccccc2)ccn(Cc2cccc(Cl)c2)c1=O", "hERG current change (%, negative = inhibition) at 1uM": 13.2}
{"smiles": "CC1CCCCN1Cc1ccc(Cl)nc1", "note": "(stereo not drawn)", "hERG current change (%, negative = inhibition) at 1uM": 8.91}
{"smiles": "Cc1ccc(C=NCc2ccncc2)c(O)c1", "hERG current change (%, negative = inhibition) at 1uM": 5.84}
{"smiles": "CC(C)[C@H](NS(=O)(=O)c1cccc(Cl)c1)C(=O)OCC(=O)NC(=O)CN1CCCC1=O", "hERG current change (%, negative = inhibition) at 1uM": 9.45}
{"smiles": "Cc1ccc(-n2nnnc2CNC(=O)C2CC(=O)N(c3ccccc3)C2)cc1C", "note": "(stereo not drawn)", "hERG current change (%, negative = inhibition) at 1uM": 20.6}
{"smiles": "CC1(OC(=O)CCc2ccccc2)C(=O)C=C2C=C(c3ccc(C#N)cc3)N(CCc3ccccn3)C=C2C1=O", "note": "(stereo not drawn)", "hERG current change (%, negative = inhibition) at 1uM": -4.89}
{"smiles": "CC(=O)c1ccc(NC2OC(CO)C(O)C(O)C2O)cc1", "note": "(stereo not drawn)", "hERG current change (%, negative = inhibition) at 1uM": -4.15}
{"smiles": "Cn1ccs/c1=N\\C(=O)Nc1ccccc1", "hERG current change (%, negative = inhibition) at 1uM": 9.82}
{"smiles": "COc1ccc(C(C#N)N2N=C(c3ccccc3)CC2c2ccccc2)cc1OC", "note": "(stereo not drawn)", "hERG current change (%, negative = inhibition) at 1uM": 10.6}
{"smiles": "CC(/C=N/NC(=O)c1cc(C(C)C)[nH]n1)=C\\c1ccccc1", "hERG current change (%, negative = inhibition) at 1uM": 7.12}
{"smiles": "Cc1onc(-c2ccccc2Cl)c1C(N)=O", "hERG current change (%, negative = inhibition) at 1uM": 7.55}
{"smiles": "CN(Cc1ccccc1)C(=O)c1ccco1", "hERG current change (%, negative = inhibition) at 1uM": 0.0237}
{"smiles": "O=C1ON=C(c2ccccc2)/C1=C/c1ccc(-c2ccccc2[N+](=O)[O-])o1", "hERG current change (%, negative = inhibition) at 1uM": 15}
{"smiles": "CCC(C)(C)n1nnnc1C(c1ccc(Cl)cc1)N1CCN(C)CC1.Cl", "note": "(stereo not drawn)", "hERG current change (%, negative = inhibition) at 1uM": 9.61}
{"smiles": "Cc1cccc(N(CC(=O)NC2CCCC2)C(=O)CCC(=O)Nc2ccccn2)c1", "hERG current change (%, negative = inhibition) at 1uM": 11}
{"smiles": "Cc1ccc(C2Nc3ccccc3-c3nc4ccccc4n32)o1", "note": "(stereo not drawn)", "hERG current change (%, negative = inhibition) at 1uM": -2.88}
{"smiles": "Cc1ncc2c(n1)-c1cc(F)ccc1SC2", "hERG current change (%, negative = inhibition) at 1uM": 6.89}
{"smiles": "COc1ccc(C)cc1NC(=O)CSc1nc2ccccc2nc1N1CCCCC1", "hERG current change (%, negative = inhibition) at 1uM": 16.7}
{"smiles": "CC(C)(C)C(=O)OC/C(N)=N/OC(=O)c1ccc(Cl)c(Cl)c1", "hERG current change (%, negative = inhibition) at 1uM": 7.27}
{"smiles": "Cc1c(C(=O)N2CC(C)OC(C)C2)oc2ccccc12", "note": "(stereo not drawn)", "hERG current change (%, negative = inhibition) at 1uM": -7.52}
{"smiles": "Cl.O=S(=O)(NCC(c1ccco1)N1CCCCC1)c1ccccc1C(F)(F)F", "note": "(stereo not drawn)", "hERG current change (%, negative = inhibition) at 1uM": 11.3}
{"smiles": "COC(C/C=C\\[C@H](O)[C@@H](C)OCc1ccccc1)OC", "hERG current change (%, negative = inhibition) at 1uM": 4.68}
{"smiles": "CCC1(c2ccc(N)cc2)CCC(=O)NC1=O", "note": "(stereo not drawn)", "hERG current change (%, negative = inhibition) at 1uM": 12}
{"smiles": "CCOc1ccc(CN2CCN(S(=O)(=O)c3ccc(NC(C)=O)cc3)CC2)cc1.O=C(O)C(=O)O", "hERG current change (%, negative = inhibition) at 1uM": -14.8}
{"smiles": "Cc1cccn2c(=O)c3cc(C#N)c(=NC(=O)c4ccncc4)n(CCCOC(C)C)c3nc12", "hERG current change (%, negative = inhibition) at 1uM": -89.7}
{"smiles": "COc1ccc(NC(=O)C2CCCN(S(=O)(=O)c3cnc[nH]3)C2)cc1", "note": "(stereo not drawn)", "hERG current change (%, negative = inhibition) at 1uM": -0.603}
{"smiles": "Cc1cc(C)c2oc(C(=O)Nc3ccc(S(=O)(=O)N4CCC(C)CC4)cc3)cc(=O)c2c1", "hERG current change (%, negative = inhibition) at 1uM": -2.86}
{"smiles": "COC(=O)Cc1csc(Nc2c(C)n(C)n(-c3ccccc3)c2=O)n1", "hERG current change (%, negative = inhibition) at 1uM": 11.8}
{"smiles": "COc1ccc(-n2c(C)n[nH]c2=O)cc1OC", "hERG current change (%, negative = inhibition) at 1uM": 16}
{"smiles": "CCCc1cc(=O)oc2c3c(cc(OCC(=O)N4CCC[C@H]4C(=O)O)c12)OC(C)(C)CC3", "hERG current change (%, negative = inhibition) at 1uM": 7.91}
{"smiles": "O=C(CSc1nnc(-c2ccc(S(=O)(=O)N3CCCC3)cc2)o1)NCC1CCCO1", "note": "(stereo not drawn)", "hERG current change (%, negative = inhibition) at 1uM": 11.2}
{"smiles": "CCN(CC)CCNC(=O)c1cc(S(=O)(=O)N2CCc3ccccc32)cn1C", "hERG current change (%, negative = inhibition) at 1uM": -40.8}
{"smiles": "O=C(Cn1cnc2scc(-c3ccc(Br)cc3)c2c1=O)N1CCOCC1", "hERG current change (%, negative = inhibition) at 1uM": -5.12}
{"smiles": "CCc1nnc(NC(=O)C(NS(=O)(=O)c2ccc3c(c2)OCCO3)C(C)C)s1", "note": "(stereo not drawn)", "hERG current change (%, negative = inhibition) at 1uM": -2.49}
{"smiles": "COc1cc(C(=O)Nc2nnc(C)s2)c([N+](=O)[O-])cc1OC", "hERG current change (%, negative = inhibition) at 1uM": 9.02}
{"smiles": "Cc1ccccc1-n1c(C)n[nH]c1=S", "hERG current change (%, negative = inhibition) at 1uM": 8.99}
{"smiles": "Cc1cccc(OCC(=O)NS(=O)(=O)c2ccc(Br)cc2)c1", "hERG current change (%, negative = inhibition) at 1uM": 10.2}
{"smiles": "COc1cccc(CC(C(=O)Nc2cc(C)ccc2C)c2nn[nH]n2)c1OC", "note": "(stereo not drawn)", "hERG current change (%, negative = inhibition) at 1uM": -4.38}
{"smiles": "CN1c2ccccc2-c2nc3ccccc3n2C1c1ccncc1", "note": "(stereo not drawn)", "hERG current change (%, negative = inhibition) at 1uM": 0.187}
{"smiles": "CCc1nnc(NC(=O)CCNC(=O)c2ccccc2Cl)s1", "hERG current change (%, negative = inhibition) at 1uM": 2.76}
{"smiles": "CCOC(=O)c1c(NC(=O)CSc2nnnn2-c2ccccc2)sc2c1CCC(C)C2", "note": "(stereo not drawn)", "hERG current change (%, negative = inhibition) at 1uM": -3.15}
{"smiles": "CCOCCCNc1c(CC)c(C)c(C#N)c2nc3ccccc3n12", "hERG current change (%, negative = inhibition) at 1uM": -7.38}
{"smiles": "Cc1csc(SCC(=O)Nc2nc3ccccc3s2)n1", "hERG current change (%, negative = inhibition) at 1uM": 7.64}
{"smiles": "CCCCNC(=O)O[C@H]1C[C@@H]2CCN3C(=O)CCC[C@H]([C@H]1CC)[C@H]23", "hERG current change (%, negative = inhibition) at 1uM": 0.582}
{"smiles": "Cc1ccc(NC(=O)Cn2nc(C(=O)O)c3ccccc3c2=O)c([N+](=O)[O-])c1", "hERG current change (%, negative = inhibition) at 1uM": 12.3}
